Data as given in PubChem BioAssay (Tox21).
This list was built around the results that the source calls inconclusive (neither active nor inactive); the mix of calls is not that of the screen. For some assays here: Where the call is inconclusive, the potency comes from a doubtful curve fit. The source made the active and inactive calls. Unless noted, calls follow the shape of the full dose curve.

Columns and labels:
[1] = qHTS assay to identify small molecule antagonists of the sonic hedgehog signaling (Shh) pathway (AID 1259369); also: nearly all actives have a fitted effect of over 45% in size; also: potency is read from the fitted curve at half-maximal effect; as to activity change, negative = inhibition: % is scaled to controls: 0 for no effect and ±100 for the full control effect
Outline: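 Conditioned medium drives Shh signalling in 3T3Gli1-Luc cells; compounds in DMSO co-applied, 24hr at 37 C, then luciferase luminescence.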

[2] = molecular target: Estrogen receptor beta (Homo sapiens) (UniProt Q92731); experiment: qHTS assay to identify small molecule agonists of the estrogen receptor beta (ER-beta) signaling pathway (AID 1259377; active = well fitted activation curve with a large enough effect in the signal ratio in the repeat runs, not every such curve was filed as active; inconclusive = weak or mixed curves, or effect the other way; the % refers to the signal ratio; also: potency is read from the fitted curve at half-maximal effect; as to activation: % is scaled to controls: 0 for no effect and ±100 for the full control effect); conditions: ER-beta-UAS-bla HEK293T, beta-lactamase FRET ratio, 16 h; activation: at 92.4 µM (top of the series) unless noted
Chain of UniProt Q92731 (Q92731 whole entry, looked up): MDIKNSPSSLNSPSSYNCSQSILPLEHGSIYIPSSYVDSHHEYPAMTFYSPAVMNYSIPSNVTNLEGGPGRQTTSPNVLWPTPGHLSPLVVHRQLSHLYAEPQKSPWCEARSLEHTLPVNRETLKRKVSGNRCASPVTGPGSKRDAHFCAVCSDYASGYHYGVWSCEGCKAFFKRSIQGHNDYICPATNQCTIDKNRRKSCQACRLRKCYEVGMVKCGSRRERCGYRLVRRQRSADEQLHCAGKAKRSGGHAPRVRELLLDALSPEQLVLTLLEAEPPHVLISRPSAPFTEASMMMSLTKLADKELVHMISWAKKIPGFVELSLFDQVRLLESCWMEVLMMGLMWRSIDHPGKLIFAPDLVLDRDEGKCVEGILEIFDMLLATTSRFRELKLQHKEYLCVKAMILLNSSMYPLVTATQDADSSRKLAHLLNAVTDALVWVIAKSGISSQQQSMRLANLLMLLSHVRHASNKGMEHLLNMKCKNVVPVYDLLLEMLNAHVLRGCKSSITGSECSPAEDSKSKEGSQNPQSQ
Outline: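 Beta-lactamase reporter readout: fluorescence of LiveBLAzer B/G FRET substrate after 2 h at room temperature, following 16 h compound treatment of ER-beta-UAS-bla HEK293T cells at 37C in 2% charcoal-stripped FBS medium.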

[3] = molecular target: Estrogen receptor beta (Homo sapiens) (UniProt Q92731); experiment: qHTS assay to identify small molecule antagonists of the estrogen receptor beta (ER-beta) signaling pathway (AID 1259378; active = well fitted inhibition curve with a large enough effect in the signal ratio in the repeat runs, not every such curve was filed as active; inconclusive = weak or mixed curves, or effect the other way; inactive = no such curve, though single readings can be large or run the other way; the % refers to the signal ratio; also: potency is read from the fitted curve at half-maximal effect; as to activity, negative = inhibition: % is scaled to controls: 0 for no effect and ±100 for the full control effect); conditions: ER-beta-UAS-bla HEK293T, beta-lactamase FRET ratio, 16 h
Outline: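 Antagonist mode: compounds added to beta-lactamase reporter HEK293T ER-beta-UAS cells stimulated with E2 (1nM final), 16 hr at 37C. LiveBLAzer B/G FRET substrate, 2 hours room temperature, fluorescence read-out.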

[4] = qHTS assay to identify small molecule antagonists of the estrogen receptor beta (ER-beta) signaling pathway - cell viability counter screen (AID 1259382; active = well fitted curve in the direction sought with a large enough effect in the repeat runs; inconclusive = weak or mixed curves; inactive = no such curve, though single readings can be large; an effect the other way counts as inactive or inconclusive; also: potency is read from the fitted curve at half-maximal effect; nearly all actives have a fitted effect of over 55% in size)
Outline: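 Agonist-stimulated (1nM E2) ER-beta-UAS-bla HEK293T cells are incubated with library compounds for 16 hr at 37C. Cell viability is then assessed in the reporter-assay wells by adding CellTiter-Glo and reading luminescence after 30 min.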

[5] = qHTS assay to identify small molecule agonists of the estrogen receptor beta (ER-beta) signaling pathway - cell viability counter screen (AID 1259380; active = well fitted curve in the direction sought with a large enough effect in the repeat runs; inconclusive = weak or mixed curves; inactive = no such curve, though single readings can be large; an effect the other way counts as inactive or inconclusive; also: potency is read from the fitted curve at half-maximal effect; nearly all actives have a fitted effect of over 30% in size)
Outline: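 Cells used were ER-beta-UAS-bla HEK293T in medium with 2% charcoal-stripped FBS. They were treated for 16 hr at 37C. Viability came from CellTiter-Glo luminescence.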

[6] = molecular target: Progesterone receptor (Homo sapiens) (UniProt P06401); experiment: qHTS assay to identify small molecule antagonists of the progesterone receptor (PR) signaling pathway (AID 1346795; active = well fitted inhibition curve with a large enough effect in the signal ratio in the repeat runs, not every such curve was filed as active; inconclusive = weak or mixed curves; the % refers to the signal ratio; also: potency is read from the fitted curve at half-maximal effect); conditions: PR-UAS-bla HEK293T, beta-lactamase FRET ratio, 16 h; activity change, negative = inhibition: at 92.4 µM (top of the series) unless noted
Chain of UniProt P06401 (P06401 whole entry, looked up): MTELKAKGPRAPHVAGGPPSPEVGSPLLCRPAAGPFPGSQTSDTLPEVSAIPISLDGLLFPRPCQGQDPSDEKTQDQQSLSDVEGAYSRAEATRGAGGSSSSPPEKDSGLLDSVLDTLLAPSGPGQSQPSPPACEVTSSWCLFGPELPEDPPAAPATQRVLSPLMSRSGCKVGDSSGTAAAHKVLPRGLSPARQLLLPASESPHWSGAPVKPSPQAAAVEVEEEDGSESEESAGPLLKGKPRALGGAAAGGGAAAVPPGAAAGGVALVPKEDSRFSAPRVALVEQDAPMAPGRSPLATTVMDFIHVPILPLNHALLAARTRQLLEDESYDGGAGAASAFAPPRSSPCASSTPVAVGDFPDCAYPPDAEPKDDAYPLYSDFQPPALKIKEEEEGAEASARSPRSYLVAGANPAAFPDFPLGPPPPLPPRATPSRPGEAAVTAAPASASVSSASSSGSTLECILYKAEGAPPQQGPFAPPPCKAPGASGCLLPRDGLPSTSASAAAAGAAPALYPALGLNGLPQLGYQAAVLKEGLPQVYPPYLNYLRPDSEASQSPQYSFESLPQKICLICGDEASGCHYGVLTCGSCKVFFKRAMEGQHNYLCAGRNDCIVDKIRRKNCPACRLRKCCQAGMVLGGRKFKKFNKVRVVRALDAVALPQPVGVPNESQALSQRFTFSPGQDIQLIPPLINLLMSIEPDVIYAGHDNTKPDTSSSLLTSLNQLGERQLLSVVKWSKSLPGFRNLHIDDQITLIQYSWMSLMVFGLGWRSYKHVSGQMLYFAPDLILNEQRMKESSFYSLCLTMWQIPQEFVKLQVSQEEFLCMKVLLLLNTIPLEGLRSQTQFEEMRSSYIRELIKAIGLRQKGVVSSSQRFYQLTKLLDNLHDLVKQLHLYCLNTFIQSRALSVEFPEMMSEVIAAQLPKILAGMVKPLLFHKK
Outline: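 Beta-lactamase reporter, HEK293T PR-UAS-bla line; 2% charcoal-stripped FBS; 6 hr pre-incubation, 37C/5% CO2. Compound + R5020 1 nM final, 16 hr. LiveBLAzer B/G FRET substrate, 2 hr RT; fluorescence intensity read.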

[7] = qHTS assay to identify small molecule antagonists of the progesterone receptor (PR) signaling pathway - cell viability counter screen (AID 1346798; active = well fitted curve in the direction sought with a large enough effect in the repeat runs; inconclusive = weak or mixed curves; inactive = no such curve, though single readings can be large; an effect the other way counts as inactive or inconclusive; also: nearly all actives have a fitted effect of over 50% in size; also: potency is read from the fitted curve at half-maximal effect)
Outline: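 Luminescence readout (CellTiter-Glo, 30 min, RT) of viability in PR-UAS-bla HEK293T cells exposed to compound and R5020 agonist for 16 hr at 37C, 5% CO2; run in the same wells as the beta-lactamase reporter read.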

[8] = qHTS assay to identify small molecule agonists of the TGF-beta/Smad signaling pathway (AID 1346859; active = well fitted activation curve with a large enough effect in the signal ratio in the repeat runs, not every such curve was filed as active; inconclusive = weak or mixed curves; the % refers to the signal ratio; also: potency is read from the fitted curve at half-maximal effect); conditions: SBE-bla HEK293T, TGF-beta/Smad beta-lactamase reporter, 5 h; activation: at 76.8 µM (top of the series)
Outline: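 Read-out: fluorescence at 460 and 530 nm (405 nm excitation) after a 2 hr room-temperature incubation with beta-lactamase FRET substrate. SBE-bla HEK 293T cells had been treated with test compounds for 5 hr at 37 C.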

[9] = molecular target: Thyrotropin receptor (Homo sapiens) (UniProt P16473); experiment: qHTS assay to identify small molecule antagonists of the thyroid stimulating hormone receptor (TSHR) signaling pathway (AID 1259385); conditions: TSHR-HEK293 cAMP HTRF, TSH-stimulated antagonist mode; activity change, negative = inhibition: at 92.4 µM (top of the series) unless noted; also: nearly all actives have a fitted effect of over 20% in size; also: potency is read from the fitted curve at half-maximal effect; as to activity change, negative = inhibition: % is scaled to controls: 0 for no effect and ±100 for the full control effect
Chain of UniProt P16473 (P16473 whole entry, looked up): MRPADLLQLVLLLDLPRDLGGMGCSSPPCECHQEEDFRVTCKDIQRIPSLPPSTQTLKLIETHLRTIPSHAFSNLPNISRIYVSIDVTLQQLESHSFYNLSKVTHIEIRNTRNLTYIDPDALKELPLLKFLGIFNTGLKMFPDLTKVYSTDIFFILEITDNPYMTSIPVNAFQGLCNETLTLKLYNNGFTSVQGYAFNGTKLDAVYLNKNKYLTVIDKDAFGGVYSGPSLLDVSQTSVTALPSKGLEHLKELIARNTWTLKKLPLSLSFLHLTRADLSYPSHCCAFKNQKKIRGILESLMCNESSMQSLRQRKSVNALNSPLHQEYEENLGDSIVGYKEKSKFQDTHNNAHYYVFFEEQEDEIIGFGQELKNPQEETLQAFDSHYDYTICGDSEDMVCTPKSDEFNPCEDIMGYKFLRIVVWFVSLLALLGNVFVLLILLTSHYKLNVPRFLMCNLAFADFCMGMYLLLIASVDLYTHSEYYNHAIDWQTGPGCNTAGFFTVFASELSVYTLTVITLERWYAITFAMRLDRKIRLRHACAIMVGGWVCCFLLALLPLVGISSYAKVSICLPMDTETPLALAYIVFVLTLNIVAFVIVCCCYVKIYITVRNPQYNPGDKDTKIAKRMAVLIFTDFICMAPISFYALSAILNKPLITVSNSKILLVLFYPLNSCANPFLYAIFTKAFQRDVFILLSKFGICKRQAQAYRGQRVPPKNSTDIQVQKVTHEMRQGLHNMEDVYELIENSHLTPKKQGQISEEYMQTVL
Outline: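 Antagonist mode: compound-treated TSHR-expressing HEK293 cells were stimulated with 1.5 ng/mL TSH (final) in presence of Ro20-1724 for 30 min at RT. HTRF cAMP detection after 1 h; each compound tested at 15 concentrations, triplicate.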

[10] = qHTS assay to identify small molecule agonists of the progesterone receptor (PR) signaling pathway - cell viability counter screen (AID 1346799); also: potency is read from the fitted curve at half-maximal effect; nearly all actives have a fitted effect of over 45% in size
Outline: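 HEK293T PR-UAS-bla, 3,000 cells/well, 2% charcoal-stripped FBS; 6 h settle, compound 16 h at 37C/5% CO2; LiveBLAzer 2 h RT, then CellTiter-Glo 30 min RT, luminescence read.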

[11] = qHTS assay to identify small molecule agonists of the estrogen receptor alpha (ER-alpha) signaling pathway in the presence of an antagonist - cell viability counter screen (AID 1259386; active = well fitted curve in the direction sought with a large enough effect in the repeat runs; inconclusive = weak or mixed curves; inactive = no such curve, though single readings can be large; an effect the other way counts as inactive or inconclusive;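 also: cells exposed to compounds for 22 h at 37 °C before the viability read; nearly all actives have a fitted effect of over 30% in size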; also: potency is read from the fitted curve at half-maximal effect)
Outline: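 ICI-182,780 at 10.0nM final accompanies the compound titration (15 concentrations, 22hr, 37C) on VM7Luc4E2 cells. The CellTiter-Fluor fluorescence readout runs in the same wells as the luciferase assay.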

[12] = qHTS assay to identify small molecule agonists of the androgen receptor (AR) signaling pathway in the presence of an antagonist - cell viability counter screen (AID 1259379; active = well fitted curve in the direction sought with a large enough effect in the repeat runs; inconclusive = weak or mixed curves; inactive = no such curve, though single readings can be large; an effect the other way counts as inactive or inconclusive;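 also: MDA-kb2 human breast cancer cells carrying an MMTV luciferase reporter; % is scaled to controls: 0 for no effect and ±100 for the full control effect; nearly all actives have a fitted effect of over 25% in size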)
Outline: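 A CellTiter-Fluor read-out measured viability of MDA-kb2 reporter cells (MMTV promoter with AR and GR response elements). Treatment: nilutamide 3.0uM final with compounds at 15 concentrations, 16 hr, 37C, 0% CO2.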

[13] = qHTS assay to identify small molecule agonists of the TGF-beta/Smad signaling pathway - cell viability counter screen (AID 1346829; active = well fitted curve in the direction sought with a large enough effect in the repeat runs; inconclusive = weak or mixed curves; inactive = no such curve, though single readings can be large; an effect the other way counts as inactive or inconclusive; also: top concentration of the series differs between compounds; % is scaled to controls: 0 for no effect and ±100 for the full control effect; nearly all actives have a fitted effect of over 45% in size)
Outline: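 After overnight seating at 37 C and 5% CO2, reporter cells got compounds for 5 hr and FRET substrate for 2 hr; cell viability then came from CellTiter-Glo luminescence.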

[14] = molecular target: Progesterone receptor (Homo sapiens) (UniProt P06401); experiment: qHTS assay to identify small molecule agonists of the progesterone receptor (PR) signaling pathway (AID 1346784); conditions: PR-UAS-bla HEK293T, beta-lactamase FRET ratio, 16 h; activation: at 92.4 µM (top of the series) unless noted; also: % is scaled to controls: 0 for no effect and ±100 for the full control effect; nearly all actives have a fitted effect of over 30% in size
Outline: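 HEK 293T PR-UAS-bla reporter cells, 2% charcoal-stripped FBS; 6 hr settle at 37C/5% CO2, compound (DMSO) 16 hr, LiveBLAzer B/G FRET substrate 2 hr RT, fluorescence intensity read.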

[15] = activity, negative = inhibition: at 92.4 µM (top of the series) unless noted
Tags tell the direction and shape of the fitted curve or compound fluorescence and quenching.

## O=C(O)CN(CCCN(CC(=O)O)CC(=O)O)CC(=O)O
[1]
  Potency: inconclusive: 0.146 µM [inhibitor, single point]
[2]
  activation: inactive: -3.28% [at 19 µM]
[3]; [15]
  Potency: active: 2.31 µM
[4]
  Potency: inconclusive: 4.61 µM [cytotoxic, partial curve, poor fit]

## OCCOCCN1CCN(C2=Nc3ccccc3Sc3ccccc32)CC1
[1]
  Potency: inconclusive: 23.7 µM [inhibitor, partial curve]
[2]
  activation: inconclusive: -2.56% [at 42.5 µM]
[3]; [15]
  Potency: inconclusive: 33.5 µM [partial curve, poor fit]
[5]
  Potency: inconclusive: 0.376 µM [cytotoxic, full curve]
[6]
  Potency: inconclusive: 13.3 µM [rising, full curve]
[7]
  Potency: inconclusive: 3.35 µM [cytotoxic, single point]
[8]
  Potency: inconclusive: 10.7 µM [rising, partial curve, poor fit]

## Cc1nn(C)c(Oc2ccccc2)c1/C=N/OCc1ccc(C(=O)OC(C)(C)C)cc1
[1]
  Potency: active: 0.0273 µM
[2]
  activation: inconclusive: 0.273%
[3]; [15]
  Potency: inconclusive: 30.6 µM [inhibitor, partial curve]
[9]
  activity change, negative = inhibition: inconclusive: -8.41%
[6]
  Potency: inconclusive: 19.3 µM [rising, partial curve]
[7]
  Potency: inactive
[10]
  Potency: inconclusive: 0.0486 µM [rising, full curve]

## O=[N+]([O-])c1ccc(/C=C/c2ccc([N+](=O)[O-])cc2S(=O)(=O)O)c(S(=O)(=O)O)c1
[1]
  Potency: inactive
[2]
  Potency: inactive
[3]; [15]
  activity, negative = inhibition: inconclusive: 2.49%
[3]; at 92.4 µM (top of the series)
  activity, negative = inhibition: inactive: -2.71%
[11]
  Potency: inconclusive: 68.6 µM [cytotoxic]
[6]
  Potency: inactive

## CNC(=O)c1c(I)c(NC(C)=O)c(I)c(C(=O)O)c1I
[1]
  Potency: inactive

## CN1CCN(C)CC1
[1]
  Potency: inconclusive: 2.43 µM [inhibitor, single point]
[2]
  Potency: inactive
[3]; [15]
  activity, negative = inhibition: inconclusive: 26.4%
[12]
  Potency: inactive
[11]
  Potency: inactive
[10]
  Potency: inconclusive: 0.969 µM [cytotoxic, single point]

## Cc1nc(-c2ccccn2)ncc1C(=O)Nn1cc(C)c2cc(F)ccc21
[1]
  Potency: inconclusive: 6.11 µM [inhibitor, full curve]
[2]
  Potency: inconclusive: 77 µM [rising, partial curve, poor fit]
[3]; [15]
  Potency: inconclusive: 43.3 µM [rising, partial curve]
[5]
  Potency: inconclusive: 24.3 µM [cytotoxic, full curve]
[6]
  Potency: inconclusive: 12.2 µM [full curve]
[7]
  Potency: active: 30.6 µM
[10]
  Potency: inconclusive: 0.611 µM [rising, full curve, poor fit]
[13]
  Potency: inactive

## Nc1ccc(Cl)c([N+](=O)[O-])c1
[1]
  Potency: inconclusive: 68.6 µM [inhibitor, single point]
[2]
  Potency: inconclusive: 54.5 µM [rising, partial curve, poor fit]
[3]; [15]
  Potency: inconclusive: 77 µM [rising, partial curve, poor fit]
[5]
  Potency: inconclusive: 68.6 µM [cytotoxic, partial curve, poor fit]
[6]
  Potency: active: 54.5 µM
[7]
  Potency: inconclusive: 15.4 µM [cytotoxic, full curve]

## CCOC(=O)CC(=O)c1cc(F)c(Cl)nc1Cl
[1]
  Potency: inactive

## C=CCOC(=O)CC(C)C
[1]
  Potency: inactive

## OC1CCCCC1c1ccccc1 (stereo unspecified)
[1]
  Potency: inactive
[2]
  Potency: inactive

## CCC(Cl)CCC(Cl)C(Cl)CC(Cl)C(Cl)C(Cl)CCl (stereo unspecified)
[1]
  Potency: inconclusive: 60.6 µM [inhibitor, single point]

## Cc1ccc(O)cn1
[1]
  Potency: inconclusive: 27.3 µM [inhibitor, single point]
[2]
  activation: inconclusive: 8.27%

## CCOC(/C=C(\C)CCC=C(C)C)OCC
[1]
  Potency: inconclusive: 0.243 µM [inhibitor, single point]
[2]
  Potency: inconclusive: 4.33 µM [activator, full curve]

## CN(C)CCOC1=Cc2ccccc2Sc2ccc(Cl)cc21
[1]
  Potency: inconclusive: 26.6 µM [inhibitor, partial curve]
[2]
  Potency: inconclusive: 33.5 µM [rising, single point]
[3]; [15]
  Potency: inconclusive: 29.8 µM [single point]
[9]
  Potency: inconclusive: 33.5 µM
[6]
  Potency: inconclusive: 23.7 µM [falling, partial curve]

## Cc1c(Nc2ncccc2C(=O)O)cccc1C(F)(F)F
[1]
  Potency: inactive
[2]
  Potency: inconclusive: 10.6 µM [fluorescent, partial curve]
[3]; [15]
  Potency: inconclusive: 11.9 µM
[4]
  Potency: inconclusive: 11.9 µM [cytotoxic]
[14]
  activation: inconclusive: 10.1% [at 42.5 µM]
[7]
  Potency: inconclusive: 7.5 µM [cytotoxic, full curve]
[10]
  Potency: inconclusive: 33.5 µM [cytotoxic, single point]

## OC[C@H](Cc1cccc(O)c1)[C@H](CO)Cc1cccc(O)c1
[1]
  Potency: active: 62.6 µM
[2]
  Potency: inconclusive: 55.8 µM [rising, partial curve, poor fit]
[3]; [15]
  Potency: inconclusive: 70.3 µM [fluorescent, partial curve, poor fit]
[4]
  Potency: inconclusive: 70.3 µM [cytotoxic, partial curve, poor fit]
[6]
  Potency: inactive
